From publication PMC4336329 (PLoS ONE, 2015) come the findings set out here.

Hit rate of the full screen: of about 310,000 compounds, about 14,000 (4.5%) showed an effect of 50% or more. Effects have a minus sign here. The list shows a part of the results.
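Further: peak tail current of the secondary pulse compared with the same well before compound.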

The target in the experiment is human ether-à-go-go-related gene (hERG) potassium channel (human, UniProt Q12809). Briefly: primary screen, population patch clamp on CHO cells stably expressing hERG.
human ether-à-go-go-related gene (hERG) potassium channel, sequence (Q12809 whole entry, looked up): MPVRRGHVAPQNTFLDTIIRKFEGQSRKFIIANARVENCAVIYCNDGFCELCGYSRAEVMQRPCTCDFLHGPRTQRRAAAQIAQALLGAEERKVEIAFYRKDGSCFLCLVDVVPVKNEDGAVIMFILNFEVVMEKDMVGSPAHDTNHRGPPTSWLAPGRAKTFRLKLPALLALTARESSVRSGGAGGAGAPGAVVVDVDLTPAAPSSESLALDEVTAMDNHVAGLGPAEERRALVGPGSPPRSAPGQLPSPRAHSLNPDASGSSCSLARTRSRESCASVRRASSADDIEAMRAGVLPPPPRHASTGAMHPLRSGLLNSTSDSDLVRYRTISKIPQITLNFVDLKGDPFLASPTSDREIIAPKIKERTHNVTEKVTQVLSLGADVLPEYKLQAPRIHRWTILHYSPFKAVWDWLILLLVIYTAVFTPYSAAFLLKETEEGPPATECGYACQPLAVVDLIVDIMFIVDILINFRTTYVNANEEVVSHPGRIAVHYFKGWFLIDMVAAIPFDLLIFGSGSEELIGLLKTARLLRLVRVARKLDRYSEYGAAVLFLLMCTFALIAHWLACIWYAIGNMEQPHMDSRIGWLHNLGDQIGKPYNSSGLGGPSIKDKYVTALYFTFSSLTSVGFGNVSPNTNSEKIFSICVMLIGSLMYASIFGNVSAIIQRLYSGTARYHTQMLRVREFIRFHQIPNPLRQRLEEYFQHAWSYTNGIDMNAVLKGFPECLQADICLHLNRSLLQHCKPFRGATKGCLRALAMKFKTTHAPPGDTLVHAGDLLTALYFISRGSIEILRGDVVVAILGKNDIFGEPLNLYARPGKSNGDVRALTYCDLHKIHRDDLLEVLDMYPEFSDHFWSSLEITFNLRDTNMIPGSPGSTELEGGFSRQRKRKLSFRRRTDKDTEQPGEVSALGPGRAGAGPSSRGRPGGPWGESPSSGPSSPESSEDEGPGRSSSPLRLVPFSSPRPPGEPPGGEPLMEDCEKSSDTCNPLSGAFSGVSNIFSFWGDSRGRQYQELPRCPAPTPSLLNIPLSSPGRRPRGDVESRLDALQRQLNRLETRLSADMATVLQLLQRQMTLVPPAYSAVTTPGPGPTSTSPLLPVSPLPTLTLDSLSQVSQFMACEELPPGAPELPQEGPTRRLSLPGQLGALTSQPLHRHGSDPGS
As to `Cc1ccccc1Nc1nnc(SCC(=O)c2c(N)n(C)c(=O)n(C)c2=O)s1`, the “hERG current change (%, negative = inhibition) at 10uM” value is reported as 5.14%.
To `N#C/C(=C\Nc1ccc2c(c1)OCCO2)C(=O)NCc1ccco1` belongs -19.1%; to `OCCCc1nc2n(n1)C(c1cccs1)C=C(c1ccc(Br)cc1)N2` (stereo not shown), -26.1%.
To `C[C@H](NC(=O)c1nc[nH]c1C(=O)N1CCN(C(=O)OC(C)(C)C)CC1)c1ccccc1` belongs 12.4%; to `CC1CN(C(=O)CNC(=O)Cc2cccc3ccccc23)CC(C)O1` (stereo not shown), -0.664%.
Next, `CCSC1=NCCN1C(=O)c1ccc(S(=O)(=O)N(CC)CC)cc1`: 1.36%.
On to `CN(CC(=O)Nc1ccc(F)cc1)C(=O)Cn1cnc2ccc(Cl)cc2c1=O`, for which the “hERG current change (%, negative = inhibition) at 10uM” value is recorded as -7.87%.
To `CCCCNC(=O)c1cccc(C(=O)NCCCC)c1` belongs -6.79%; to `COc1ccc(-n2c(SCc3ccccn3)nc3c(c2=O)SCC3)cc1OC`, -2.16%; to `CCOCCc1nn2c(=O)cc(CSCC(=O)Nc3cccc(C)c3C)nc2s1`, 2.23%.
Next, `CCOC(=O)c1c(C)[nH]c(C(=O)COC(=O)c2ccc(N3CCCC3=O)cc2)c1C`: 4.32%; `COc1ccc([C@@H]2[C@@H]3C(=O)N(C(C)(C)C)C(=O)[C@@H]3[C@]3(Cc4ccccc4)C(=O)N(c4ccc(C)cc4)C(=O)N23)cc1`: 2.04%.
Take `O=C(CCn1c(=O)oc2ccc(Cl)cc21)N1CCN(c2ccccc2)CC1`: the “hERG current change (%, negative = inhibition) at 10uM” value was -33.8%.
Regarding `CN(CC(=O)Nc1ccc(F)cc1)C(=O)COc1ccccc1Cc1ccccc1`, the “hERG current change (%, negative = inhibition) at 10uM” value is listed as -4.17%.
In the case of `O=C1c2ccccc2C(Nc2cccc(C(F)(F)F)c2)N1Cc1ccco1` (stereo not shown), the “hERG current change (%, negative = inhibition) at 10uM” value is reported as 6.63%.
`CCOC(=O)CC(NC(=O)Cc1ccc(F)cc1)c1ccccc1Cl` (stereo not shown): the “hERG current change (%, negative = inhibition) at 10uM” value was -1.39%.
Next, `CCCc1nc(Nc2nc3ccccc3o2)nc(C)c1C(=O)OCC`: -18.3%.
As to `CCOC(=O)CSc1nncc2ccc(OC)c(OC)c12`, the “hERG current change (%, negative = inhibition) at 10uM” value is reported as 8.51%.
To `CCN1CCN(c2ccc(S(=O)(=O)N3CCOCC3)cc2NC(=O)c2ccccc2OC(F)F)CC1` belongs -42.5%; to `Cc1c(C(=O)O)oc2ccc(S(=O)(=O)NCCC3=CCCCC3)cc12`, 0.629%.
Regarding `CSc1nnc([C@@H](NC(=O)OC(C)(C)C)C(C)C)o1`, the “hERG current change (%, negative = inhibition) at 10uM” value is listed as -13.6%.
To `CCOC(=O)CSc1nc2sc3c(c2c(=O)n1CC)CC(C)(C)OC3` belongs -23.4%; to `C/C(=N/NC(=O)c1ccco1)c1ccc(Br)s1`, 8.28%.
As for `Cc1csc(NC(=O)Cc2ccccc2[N+](=O)[O-])n1`, the “hERG current change (%, negative = inhibition) at 10uM” value turned out to be 8.85%.
In the case of `CCn1c(SCC(=O)Nc2nnc(C)s2)nnc1C(C)NC(=O)c1ccccc1` (stereo not shown), the “hERG current change (%, negative = inhibition) at 10uM” value was 5.07%.
Next, `Cc1ccc(C(=O)c2cc3c(cc2[N+](=O)[O-])OCCO3)cc1`: -9.5%; `c1cc2[nH]snc2c2nc(C3CC3)nc12`: -29.3%.
To `CC(=O)c1ccc(NCC(=O)N2CCN(S(=O)(=O)c3ccccc3)CC2)cc1` belongs -5.61%; to `CCc1ccccc1NC(=O)Nc1cccn(Cc2ccc(F)cc2)c1=O`, 0.961%; to `CCc1ccc(Nc2ncc3c(n2)CC(c2ccco2)CC3=O)cc1` (stereo not shown), -6.37%.
For the compound `Nc1nonc1C(=O)N/N=C/c1cccc([N+](=O)[O-])c1`, the “hERG current change (%, negative = inhibition) at 10uM” value is -13.7%.
To `Cc1cc(C)cc(N(CC(=O)Nc2ccc(-c3nc4ccc(C)cc4s3)cc2)S(C)(=O)=O)c1` belongs -4.51%; to `Cc1cc(C)c2cc(C=O)c(Cl)nc2c1`, 6.24%.
In the case of `CCc1ccc2c(c1)C(c1ccc(N3CCOCC3)cc1)=NNC(c1ccncc1)=N2`, the “hERG current change (%, negative = inhibition) at 10uM” value worked out at 12.7%.
As for `COC(=O)c1c(C)oc(C)c1S(=O)(=O)N1CCCC1`, the “hERG current change (%, negative = inhibition) at 10uM” value is -0.15%.
Next, `CC1=C/C(=N\OS(=O)(=O)c2ccccc2)C(C)=CC1=O`: -9.37%; `COC(=O)C(C)NC(=O)C12CC3CC(CC(C3)C1)C2` (stereo not shown): 18.2%; `CNc1ccc(Br)cc(C(=O)/C=C/c2ccc(OC)cc2)c1=O`: 4.96%.
To `CC1=CC(C)C(C(=O)O)C(C(=O)Nc2cccnc2)C1` (stereo not shown) belongs 28.7%; to `CN(c1ccccc1)c1nc(N)c([N+](=O)[O-])c(NCCO)n1`, 11%.
To `CCc1ccc(NC(=O)CC2C(=O)NCCN2C(=O)c2ccc(F)cc2)cc1` (stereo not shown) belongs -55.4%; to `CCC(C)NC(=O)C1CCN(S(=O)(=O)c2ccc(-n3cnnn3)cc2)CC1` (stereo not shown), 3.26%; to `O=C(O)C(=O)O.O=[N+]([O-])c1ccccc1S(=O)(=O)N1CCN(CC2CC3C=CC2C3)CC1` (stereo not shown), -12.1%.
